Measured values as given in the supplement of paper PMC8728848.
The other results are listed elsewhere or left out.

Experiments:
Experiment in all cases: glycan array binding signal (z-score within array); higher = stronger binding
Conditions in all cases: glycan notation: IUPAC condensed, linker removed
[1] = molecular target: Gal(b1-3)GlcNAc(b1-2)Man(a1-3)[Gal(b1-3)GlcNAc(b1-2)Man(a1-6)]Man(b1-4)GlcNAc(b1-4)[Fuc(a1-6)]GlcNAc
Procedure, shortened: (§1)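 Glycan array data were curated from 3228 arrays in the Consortium for Functional Glycomics database and kept only where the protein sequence was available. Glycan names were converted to IUPAC-condensed notation, and columns mapping to the same glycan were averaged. The binding signal is a within-array Z-score, averaged across arrays of the same protein sequence at different concentrations or buffers and across linkers. Negative Z-scores can be read as non-binding.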

[2] = molecular target: Gal(b1-3)GlcNAc(b1-2)Man(a1-3)[GlcNAc(b1-4)][Gal(b1-3)GlcNAc(b1-2)Man(a1-6)]Man(b1-4)GlcNAc(b1-4)GlcNAc
Procedure, shortened: as §1

[3] = molecular target: Gal(b1-3)GlcNAc(b1-2)[Gal(b1-3)GlcNAc(b1-6)]Man(a1-6)[Gal(b1-3)GlcNAc(b1-2)Man(a1-3)]Man(b1-4)GlcNAc(b1-4)GlcNAc
Procedure, shortened: as §1

[4] = molecular target: Gal(b1-3)GlcNAc(b1-3)Gal(b1-3)GlcNAc
Procedure, shortened: as §1

[5] = molecular target: Gal(b1-3)GlcNAc(b1-3)Gal(b1-4)Glc
Procedure, shortened: as §1

[6] = molecular target: Gal(b1-3)GlcNAc(b1-3)Gal(b1-4)GlcNAc
Procedure, shortened: as §1

[7] = molecular target: Gal(b1-3)GlcNAc(b1-3)Gal(b1-4)GlcNAc(b1-2)Man(a1-3)[Gal(b1-3)GlcNAc(b1-3)Gal(b1-4)GlcNAc(b1-2)Man(a1-6)]Man(b1-4)GlcNAc(b1-4)GlcNAc
Procedure, shortened: as §1

[8] = molecular target: Gal(b1-3)GlcNAc(b1-3)Gal(b1-4)GlcNAc(b1-2)[Gal(b1-3)GlcNAc(b1-3)Gal(b1-4)GlcNAc(b1-6)]Man(a1-6)[Gal(b1-3)GlcNAc(b1-3)Gal(b1-4)GlcNAc(b1-2)Man(a1-3)]Man(b1-4)GlcNAc(b1-4)[Fuc(a1-6)]GlcNAc
Procedure, shortened: as §1

[9] = molecular target: Gal(b1-3)GlcNAc(b1-3)Gal(b1-4)GlcNAc(b1-3)Gal(b1-4)GlcNAc(b1-2)[Gal(b1-3)GlcNAc(b1-3)Gal(b1-4)GlcNAc(b1-3)Gal(b1-4)GlcNAc(b1-6)]Man(a1-6)[Gal(b1-3)GlcNAc(b1-3)Gal(b1-4)GlcNAc(b1-3)Gal(b1-4)GlcNAc(b1-2)Man(a1-3)]Man(b1-4)GlcNAc(b1-4)[Fuc(a1-6)]GlcNAc
Procedure, shortened: as §1

[10] = molecular target: Gal(b1-3)GlcNAc(b1-3)Gal(b1-4)GlcNAc(b1-6)[Gal(b1-3)GlcNAc(b1-3)]Gal(b1-4)Glc
Procedure, shortened: as §1

[11] = molecular target: Gal(b1-3)GlcNAc(b1-3)Gal(b1-4)[Fuc(a1-3)]GlcNAc
Procedure, shortened: as §1

[12] = molecular target: Gal(b1-3)GlcNAc(b1-3)Gal(b1-4)[Fuc(a1-3)]GlcNAc(b1-6)[Gal(b1-3)GlcNAc(b1-3)]Gal(b1-4)Glc
Procedure, shortened: as §1

[13] = molecular target: Gal(b1-3)GlcNAc(b1-3)GalNAc
Procedure, shortened: as §1

[14] = molecular target: Gal(b1-3)GlcNAc(b1-6)Gal(b1-4)GlcNAc
Procedure, shortened: as §1

[15] = molecular target: Gal(b1-3)GlcNAc(b1-6)GalNAc
Procedure, shortened: as §1

[16] = molecular target: Gal(b1-3)GlcNAc(b1-6)[Gal(b1-3)]GalNAc
Procedure, shortened: as §1

Gal(b1-3)GlcNAc6S = molecular target: Gal(b1-3)GlcNAc6S
Procedure, shortened: as §1

[17] = molecular target: Gal(b1-3)[Fuc(a1-4)]GlcNAc
Procedure, shortened: as §1

[18] = molecular target: Gal(b1-3)[Fuc(a1-4)]GlcNAc(b1-2)Man
Procedure, shortened: as §1

[19] = molecular target: Gal(b1-3)[Fuc(a1-4)]GlcNAc(b1-2)Man(a1-3)[Gal(b1-3)[Fuc(a1-4)]GlcNAc(b1-2)Man(a1-6)]Man(b1-4)GlcNAc(b1-4)[Fuc(a1-6)]GlcNAc
Procedure, shortened: as §1

[20] = molecular target: Gal(b1-3)[Fuc(a1-4)]GlcNAc(b1-3)Gal(b1-3)[Fuc(a1-4)]GlcNAc
Procedure, shortened: as §1

[21] = molecular target: Gal(b1-3)[Fuc(a1-4)]GlcNAc(b1-3)Gal(b1-4)[Fuc(a1-3)]GlcNAc
Procedure, shortened: as §1

[22] = molecular target: Gal(b1-3)[Fuc(a1-4)]GlcNAc(b1-6)GalNAc
Procedure, shortened: as §1

[23] = molecular target: Gal(b1-3)[GlcNAc(b1-6)]GalNAc
Procedure, shortened: as §1

[24] = molecular target: Gal(b1-3)[Neu5Ac(a2-6)]GalNAc
Procedure, shortened: as §1

[25] = molecular target: Gal(b1-3)[Neu5Ac(a2-6)]GlcNAc(b1-4)Gal(b1-4)Glc
Procedure, shortened: as §1

[26] = molecular target: Gal(b1-3)[Neu5Ac(b2-6)]GalNAc
Procedure, shortened: as §1

Gal(b1-4)Gal = molecular target: Gal(b1-4)Gal
Procedure, shortened: as §1

[27] = molecular target: Gal(b1-4)GalNAc(a1-3)[Fuc(a1-2)]Gal(b1-4)GlcNAc
Procedure, shortened: as §1

[28] = molecular target: Gal(b1-4)GalNAc(b1-3)[Fuc(a1-2)]Gal(b1-4)GlcNAc
Procedure, shortened: as §1

Gal(b1-4)Glc = molecular target: Gal(b1-4)Glc
Procedure, shortened: as §1

Gal(b1-4)Glc6S = molecular target: Gal(b1-4)Glc6S
Procedure, shortened: as §1

Gal(b1-4)GlcNAc = molecular target: Gal(b1-4)GlcNAc
Procedure, shortened: as §1

[29] = molecular target: Gal(b1-4)GlcNAc(a1-6)Gal(b1-4)GlcNAc
Procedure, shortened: as §1

Gal(b1-4)GlcNAc(b1-2)Man = molecular target: Gal(b1-4)GlcNAc(b1-2)Man
Procedure, shortened: as §1

[30] = molecular target: Gal(b1-4)GlcNAc(b1-2)Man(a1-3)Man(b1-4)GlcNAc(b1-4)GlcNAc
Procedure, shortened: as §1

[31] = molecular target: Gal(b1-4)GlcNAc(b1-2)Man(a1-3)[Gal(b1-4)GlcNAc(b1-2)Man(a1-6)]Man(b1-4)GlcNAc(b1-4)GlcNAc
Procedure, shortened: as §1

B1: PX9961U-pdi-543-24-543 (Parabacteroides distasonis) (protein)
chain: EEPVGEFLPGQVESEENIEGIVTGAYAVLDGYYASDAINSGCSNWQFGDVVSDDAYKGGGGTGDQNQIHLMEIFNANPTGIDFEARWAALYEGIKRCNQAIRLLNGSEVKNKEQRLAEMRFLRGHYYFNLKIIYNQIPWIDETLVDPNEYNKKSNIEFSSDQLWEKILEEFSAAYKVLPESQADYGRPTKMAARAYMAKVYLYQSKWKECLEACDEVIQSGKYELFPDFRNVFLPENDNCSEIIFAIQLSINDGSPNNENGSYGDRLLPPGGPYPVYGFLRPTQNLVNAYKTDVKGLPYNDGKDVSENDYVDVRLDHTLARPNIPFMDVQLYDWTPREASVYGPYSPKKRLVSLNSTYYSPIWPYVNALNFYVIRYADLLLWRAEAAIETGDLETGRKYINMIRERAKNTQHVKTMDQSQDAANYKVGVYDEPFKSKNEAVQALRMERRLEMAHEGIRFFDLVRWGVADEVINAYIAKEKVFRSHLQNAHFVKGKHEYFPIPQSMIDICGTEVMKQNPGY
[1]
  glycan array binding signal (z-score): 1.32
[2]
  glycan array binding signal (z-score): 0.701
[3]
  glycan array binding signal (z-score): 0.893
[4]
  glycan array binding signal (z-score): 0.07
[5]
  glycan array binding signal (z-score): -0.4
[6]
  glycan array binding signal (z-score): -0.488
[7]
  glycan array binding signal (z-score): 0.719
[8]
  glycan array binding signal (z-score): 2.71
[9]
  glycan array binding signal (z-score): 4.42
[10]
  glycan array binding signal (z-score): 1.54
[11]
  glycan array binding signal (z-score): -0.399
[12]
  glycan array binding signal (z-score): -0.346
[13]
  glycan array binding signal (z-score): -0.385
[14]
  glycan array binding signal (z-score): -0.307
[15]
  glycan array binding signal (z-score): 0.603
[16]
  glycan array binding signal (z-score): 0.565
Gal(b1-3)GlcNAc6S
  glycan array binding signal (z-score): -0.261
[17]
  glycan array binding signal (z-score): -0.344
[18]
  glycan array binding signal (z-score): -0.354
[19]
  glycan array binding signal (z-score): 0.134
[20]
  glycan array binding signal (z-score): -0.393
[21]
  glycan array binding signal (z-score): -0.465
[22]
  glycan array binding signal (z-score): 3.44
[23]
  glycan array binding signal (z-score): -0.355
[24]
  glycan array binding signal (z-score): -0.38
[25]
  glycan array binding signal (z-score): -0.483
[26]
  glycan array binding signal (z-score): -0.456
Gal(b1-4)Gal
  glycan array binding signal (z-score): 1.69
[27]
  glycan array binding signal (z-score): -0.413
[28]
  glycan array binding signal (z-score): -0.247
Gal(b1-4)Glc
  glycan array binding signal (z-score): -0.492
Gal(b1-4)Glc6S
  glycan array binding signal (z-score): -0.266
Gal(b1-4)GlcNAc
  glycan array binding signal (z-score): -0.332
[29]
  glycan array binding signal (z-score): -0.139
Gal(b1-4)GlcNAc(b1-2)Man
  glycan array binding signal (z-score): -0.43
[30]
  glycan array binding signal (z-score): -0.134
[31]
  glycan array binding signal (z-score): -0.463
